Assay results published in PubChem BioAssay AID1508624 (National Center for Advancing Translational Sciences (NCATS), 2021).
The whole screen tested about 48,000 compounds, of which about 120 (0.25%) were called active. About 4% were inconclusive and are not listed. The call rests on the fitted dose curve; in most records, active means well fitted activation curve with a large enough effect; inconclusive means small, poorly fitted or top-dose-only effect, or another doubt; inactive means no such curve, though single readings can be large or run the other way. This is one part of the list.

Experiment: Primary qHTS for Identification of Small Molecule Activators of Huntingtin-Antisense Promoter Activity; further: nearly all actives have a fitted effect of over 55% in size
Conditions: HEK293 HTT-AS promoter firefly luciferase reporter, 24 h; series mostly up to 57.5 µM; activity change, positive = activation: at the top concentration
How it was run: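 HEK293 luciferase promoter-reporter cells (2,500/well) plated 24 h, then compounds added at up to 57.5 uM final for 24 h at 37 °C. Firefly luminescence by Dual-Glo, normalized to vehicle (0%) and zero RLU (-100%).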

Activity change, positive = activation, inactive:
O=C(CC1N=C2c3ccccc3N=C(SCC(=O)Nc3ccccc3F)N2C1=O)NCc1cccs1 (stereo not drawn) -3.66%, CC(C)Cn1cc(NC(=O)NCc2ccccc2Cl)c2ccccc2c1=O -5.65%, CC(NC(=O)C1CCN(S(=O)(=O)c2ccc3nc4c(c(C(=O)O)c3c2)CCCC4)CC1)c1ccccc1 (stereo not drawn) 2.65%, Cc1ccc(NC(=O)CCS(=O)(=O)c2cc(Br)cc3c2N(C(=O)C2CC2)CC3)cc1 -9.43%, O=C(CSc1oc(-c2ccccc2)nc1S(=O)(=O)c1ccccc1)c1ccccc1 -10.4%, COc1cccc(NC(=O)c2ccc3nc(Cc4ccccc4)oc3c2)c1 -10.9%, CCc1ccc(-n2c(SCc3cccc(F)c3)nc3[nH]ncc3c2=O)cc1 -10.2% [at 11.5 µM, percent change from vehicle, -100% = no light], COc1ccc(CNC(=O)Cn2nc(C)c3c(C)n(-c4ccccc4)nc3c2=O)cc1OC -14.2%, CCCCc1ccc(NC(=O)C2(C)Cc3ccccc3C(=O)O2)cc1 (stereo not drawn) -21.2%, CCc1ccc(C2CC(=O)Oc3c2c(=O)n(C)c2ccccc32)cc1 (stereo not drawn) -18.2%, Cc1cccc(-c2nc(C(N)=O)c3c(n2)n(-c2ccc4c(c2)OCO4)c(=O)n3C)c1 -17.1%, COc1ccc(N(C)C(=O)c2cc(S(=O)(=O)N3CCc4ccccc43)cn2C)c(OC)c1 -21.5%, Cc1cc(C)cc(NC(=O)Cn2cc(C(=O)c3ccccc3)c(=O)c3ccc(C)nc32)c1 -11.7%, Cn1c(=O)c2nc(SCC(=O)Nc3ccc(Cl)c(Cl)c3)n(C)c2n(C)c1=O -10.2%, CCCCC(CC)CN=C(N)NC(N)=NCCCCCCN=C(N)NC(N)=NCC(CC)CCCC (stereo not drawn) -76.7%, Cc1ccc(CN(Cc2ccco2)c2cnc(S(C)(=O)=O)nc2C(=O)Nc2ccccc2Br)o1 -30.8%, COC(=O)CN1C(=O)C(O)(CC(=O)c2ccc(F)cc2)c2ccccc21 (stereo not drawn) -4.49%, CCOC(=O)CSc1nc2ccc(NC(=O)COc3ccccc3C)cc2s1 -2.68%, Cc1ccc(Cl)cc1NC(=O)CCS(=O)(=O)c1ccc2c(c1)n(C)c(=O)c(=O)n2C -3.11%, Cc1ccc(-n2c3nc(=O)[nH]c(=O)c-3cc3c(C)nn(-c4ccccc4)c32)c(C)c1 -10.6%, O=C(Nc1ccc(Cl)cc1)c1cc2c(-c3ccccc3)nn(-c3ccccc3)c2s1 2.81%, Cc1nn(CC(=O)N2CCCCC2)c(=O)c2cc3occc3n12 -4.85%, CCN(CC)CCNC(=O)COc1ccc(Cl)cc1 -1.02%, COc1ccc(N2CCN(C(=O)c3ccc4c(Cl)c5c(nc4c3)CCCC5)CC2)cc1 -3.16%, CCOC(=O)c1c(NC(C)=O)c2c3c(sc2n1Cc1nc(-c2cccc(C)c2)oc1C)CCCC3 -3.39%, CCOc1ccc(-c2cc(C(=O)NCCc3ccc(Cl)cc3)c3ccccc3n2)cc1 0%, COc1cc(-c2cc(OC)c3c(C)oc(C)c3c(=O)c2)ccc1OC(=O)c1ccccc1F -10.2%, OCCCc1nc2n(n1)C(c1cccc(Cl)c1)C=C(c1ccccc1)N2 (stereo not drawn) -19.8%, COc1ccccc1-c1nc(CNC(=O)Nc2ccccc2)c(C)o1 -9.91%, O=[N+]([O-])c1cc(-c2nc(-c3ccccc3)no2)ccc1NC1CCCC1 -21.6%, COc1ccc(CN2C(=O)N(c3ccc(C)cc3)C(=O)C2CC(=O)Nc2ccccc2)cc1OC (stereo not drawn) 22.5%, CCCCCCNC(=O)n1cc(F)c(=O)[nH]c1=O, Cc1ccc2nc(NCCc3ccccc3)c3nncn3c2c1 17.7%, Cc1nn(-c2ccccc2)c(OC(=O)C(C)(C)C)c1Sc1ccccc1 -3.73%, CCn1c(=O)cc(OCC(=O)Nc2ccc(C)c(F)c2)c2ccccc21 -6.43%, Cc1ccc(Cn2c(SCc3ccc(C(=O)NC4CCCC4)cc3)nc3ccncc32)cc1 -26.6%, Cc1ccc(-n2c(-c3ccco3)nc3c(cnn3-c3ccccc3C)c2=O)cc1 -33.9%, COC(=O)c1cc(NS(=O)(=O)c2cc(Br)cc3c2N(C(C)=O)CC3)cc(C(=O)OC)c1 13.6%, COCCn1c(=N)c(C(=O)NCc2ccco2)cc2c(=O)n3cc(C)ccc3nc21 -3.53%, Cc1nnc(NC(=O)C(=O)c2cc(C)n(-c3ccc(C)c(C)c3)c2C)s1 -15.5%, CCCC(=O)c1ccc(OC(=O)c2c(-c3ccccc3Cl)noc2C)cc1 -21.4%, Cc1cccc(-n2c(=O)c3c(c4cc(C)ccc4n3C)n(CC(=O)Nc3ccc(C)cc3C)c2=O)c1 -8.6%, Cc1ccc(C(=O)Nc2ccc3oc(-c4ccncc4)nc3c2)c(Cl)c1 5.65% [at 11.5 µM, percent change from vehicle, -100% = no light], COc1ccc(-c2cn3c(n2)sc2cc(C(=O)Nc4cc(OC)cc(OC)c4)ccc23)cc1 -17.4%, CCc1ccc(-n2c(=O)c3cccnc3n2CC(=O)Nc2ccccc2C(F)(F)F)cc1 -16.5%, N#Cc1c(NC(=O)CS(=O)(=O)c2ccc(Cl)cc2)sc2c1CCCCC2 -9.32%, COc1ccc(-c2ccc(CCC(=O)O)n2CC(=O)Nc2cccc(C(F)(F)F)c2)cc1 -30.4%, O=C(Nc1cccc(Cl)c1)c1cc(S(=O)(=O)N2CCC3(CC2)OCCO3)ccc1F -35.3%, CCN(CCCNC(=O)Cn1ncc2c3ccccc3n(C)c2c1=O)c1cccc(C)c1 -10%, Cc1ccccc1C(=O)n1nc(-c2cccnc2)nc1NCc1ccc(F)cc1 -19.1%, COc1cc(OC)c(NC(=O)Cn2cnc3c(nc4n3CCCCC4)c2=O)cc1Cl 1.37%, Cc1cc(OCC(=O)Nc2nc3c(s2)CCCC3)cc(C)c1Cl -1.32%, CCOC(=O)c1ccccc1NC(=O)COc1cc(=O)n(CC)c2ccccc12 -12.6%, Cc1cccc(C)c1NC(=O)Cn1c(=O)cc(C)c2c(C)nn(-c3cccc(Cl)c3C)c21 5.42%, COc1ccc(Cl)cc1NC(=O)c1sc2nc3c(cc2c1N)CN(C)CC3 16.8%, CCOc1ccccc1NC(=O)Cn1c(=O)n(Cc2ccccc2)c(=O)c2c3c(sc21)CN(C(C)=O)CC3 -26.9%, O=C(CCC1N=C2c3ccccc3N=C(SCc3ccc(Cl)cc3)N2C1=O)NC1CCCCC1 (stereo not drawn) -22.9%, O=C(CN1CCN(C2CCCCC2)C(=O)C1=O)Nc1ccc(Cl)cc1 -11.5%
